# Laboratory results as given in the supplement of paper PMC10126150.
# Sequences with one replicate were seen in a single cluster, so their values are uncertain.
# Test system: ATP
# Assay: switch fluorescence ratio, 500 uM ATP over buffer (Cy3 cluster intensity, sum of 5 cycles each) (fold (ratio)); higher = stronger signal-on switching upon ATP binding; sequences stand for … in TCGTCGGCAGCGTCAGATGTGTATAAGAGACAGTTTTTTTTTTTTTTTTTTTTTTTTT…TC
# Conditions: aptamer strand: ATP DNA aptamer (quencher-CACCTGGGGGAGTATTGCGGAGGAAGG + anchor), 100 nM annealed; ATP concentration: 500 uM; one replicate
# In short: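 Switching-strand clusters labelled with Cy3 on a modified Illumina MiSeq flow-cell were annealed to 100 nM quencher-labelled ATP aptamer, imaged in selection buffer, and re-imaged after 15 min with 500 uM ATP at 22 °C. This was done over five cycles with NaOH stripping and re-annealing in between. The fluorescence ratio is summed target-cycle over summed buffer-cycle Cy3 intensity per cluster, averaged per switch-domain sequence, excluding clusters outside 100-1000 RFU.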
# 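Further: ATP exposure 15 min at 22 °C before imaging.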
row,Sequence,switch fluorescence ratio
1,CGATTAATAT,1.01
2,CGATTAATCG,0.993
3,CGATTACGGC,1.04
4,CGATTACGTG,1.04
5,CGATTAGCGG,1.02
6,CGATTATACC,1.14
7,CGATTCGGAG,0.974
8,CGATTCGGT,0.998
9,CGATTGGTCA,0.978
10,CGATTGTATT,0.988
11,CGATTTCCTT,1.01
12,CGATTTCGA,1.01
13,CGATTTCGCA,1.02
14,CGCAAAAGTA,2.57
15,CGCAACACGT,3.44
16,CGCAACACTT,4.26
17,CGCAACATCA,1.34
18,CGCAATCTAG,5.11
19,CGCACAGCTC,1.98
20,CGCACGCCTG,1.07
21,CGCACTGGTG,2.08
22,CGCAGAGGTG,1.48
23,CGCAGCAACT,5.64
24,CGCAGCTGGT,1.18
25,CGCAGCTTGG,1.55
26,CGCAGGTAAG,1.04

row,Sequence,switch fluorescence ratio
1,CGCAGGTTCC,1.44
2,CGCAGGTTTA,0.976
3,CGCAGTCCGC,1.68
4,CGCAGTCCT,1.09
5,CGCATCGGGA,1.02
6,CGCATGAACT,1.38
7,CGCATGGGAG,1.02
8,CGCATGGTTG,1
9,CGCATTCATA,1.14
10,CGCATTTCAT,1.02
11,CGCATTTTTG,1.08
12,CGCCACACGT,1.05
13,CGCCACGGCC,1.08
14,CGCCAGTTAG,0.975
15,CGCCCGAGAG,1.08
16,CGCCCTAATC,1.23
17,CGCCCTGACG,0.982
18,CGCCGACGGT,1.04
19,CGCCGAGGCC,1.04
20,CGCCGAGGTG,1.87
21,CGCCGATA,1.02
22,CGCCGGCCTA,1.02
23,CGCCGGGATC,1.2
24,CGCCGTCTGC,0.95
25,CGCCTAAACT,1.03
26,CGCCTACACG,1.02

row,Sequence,switch fluorescence ratio
1,CGCCTAGTCT,1.01
2,CGCCTCCACA,1.76
3,CGCCTCCAGG,4.92
4,CGCCTGTTTT,1.02
5,CGCCTTTTAA,1
6,CGCGAAAAGG,1.05
7,CGCGAACTGT,0.958
8,CGCGAAGTTT,0.968
9,CGCGACTGAC,2.12
10,CGCGAGTCCA,1.05
11,CGCGATTCAC,2.98
12,CGCGATTTCG,1.05
13,CGCGCCGGTC,1.05
14,CGCGCCTAAA,0.96
15,CGCGCTAGGT,1.04
16,CGCGCTGGAA,0.999
17,CGCGCTTAGG,1.09
18,CGCGCTTGCG,0.983
19,CGCGGAACTC,3.04
20,CGCGGACGAA,1.02
21,CGCGGCCGTG,0.979
22,CGCGGGTATC,1.04
23,CGCGGTAGGA,1.01
24,CGCGGTCGGA,0.977
25,CGCGGTTCAT,0.986
26,CGCGTAGAGA,1.05

row,Sequence,switch fluorescence ratio
1,CGCGTCACTC,1.78
2,CGCGTCCATA,0.991
3,CGCGTCTGTC,1.01
4,CGCGTCTGTG,1
5,CGCGTTACTC,3.18
6,CGCTAAAGT,1.4
7,CGCTAGAGCG,1.02
8,CGCTATAATA,1.25
9,CGCTATAGTT,1.22
10,CGCTATCTGA,1.03
11,CGCTCAACTT,1.05
12,CGCTCACAT,1.29
13,CGCTCCCGGC,1.03
14,CGCTCCTAAG,1.04
15,CGCTCCTCTA,1.18
16,CGCTCCTCTG,1.4
17,CGCTGAGATT,1.01
18,CGCTGCAAGA,2.23
19,CGCTGCGGGC,1.23
20,CGCTGCTGTT,1.02
21,CGCTGGACAA,1.03
22,CGCTGTCCTG,1.01
23,CGCTGTGCAG,1.02
24,CGCTGTTTTA,1.06
25,CGCTTAAGG,0.997
26,CGCTTCCCGG,1.33

row,Sequence,switch fluorescence ratio
1,CGCTTCCTAA,1.05
2,CGCTTCTGCT,0.996
3,CGCTTGATG,1.02
4,CGCTTTCCAA,1
5,CGCTTTTTAA,1.06
6,CGGAAAAGTA,1.03
7,CGGAAAATAA,1.03
8,CGGAAAGTTA,0.983
9,CGGAAATCTA,1.05
10,CGGAAATCTT,1.01
11,CGGAAATGTT,0.981
12,CGGAACAAAC,2.97
13,CGGAACCCAA,1.1
14,CGGAACCGTT,1.01
15,CGGAAGAGAC,1.03
16,CGGAAGATAA,0.959
17,CGGAAGCCGC,0.939
18,CGGAAGGAGT,0.963
19,CGGAAGGTAT,0.974
20,CGGAATATTC,1.33
21,CGGACACAT,1.11
22,CGGACAGGTT,1.04
23,CGGACCCTTT,1.03
24,CGGACGATC,1.02
25,CGGACGTGTT,1.12
26,CGGACTCGGG,0.962

row,Sequence,switch fluorescence ratio
1,CGGACTGACC,1.1
2,CGGACTGCGT,1.04
3,CGGAGAACGA,0.984
4,CGGAGACA,1.02
5,CGGAGACACT,1.03
6,CGGAGACGGC,1.1
7,CGGAGATGGA,1.01
8,CGGAGGAATC,2.98
9,CGGAGGTTG,1.02
10,CGGAGTATGA,1.08
11,CGGAGTGTTA,1.13
12,CGGATAAG,0.966
13,CGGATAAGAA,0.97
14,CGGATACGAA,1.04
15,CGGATGAAAA,0.961
16,CGGATGACCT,1.04
17,CGGATGCTTT,0.904
18,CGGATTGCGG,0.968
19,CGGCAAACCA,1
20,CGGCAACCTA,1.12
21,CGGCAACTCG,1.13
22,CGGCACATTG,0.995
23,CGGCACCGGA,1.06
